This is one part of the list.
System: T1, C. trachomatis L2/434/Bu expressing GFP (CTL2-GFP)
T1 construct: L2/434/Bu GFP intracellular growth in HeLa cells
Parameters: species or system HeLa; C. trachomatis total inclusion area by high-content imaging, normalised to DMSO
Settings: total inclusion area; 28.5 h, 10 µM; inhibitor
Outline: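 After bulk GFP and resorufin fluorescence reads, cells were fixed, stained with Hoechst and imaged by high-content microscopy. Inclusion area and number (GFP) stood in for chlamydial growth, nuclei count (Hoechst) for host cell viability. MICs were derived as for the bulk readout.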

| Compound | % of control remaining |
| --- | --- |
| COc1ccc(Nc2nc(N)nc(CSCCO)n2)cc1 [CBK266714] | 105.804 |
| Cc1cn2c(nc1=O)OC[C@H]1O[C@@H]2C[C@H]1O [CBK201280] | 128.312 |
| Cc1ccc2cc(CN(Cc3ccco3)C(=O)C3CCCO3)c(O)nc2c1 (stereo not drawn) [CBK269300] | 66.3113 |
| O=C(CNC(=O)c1ccco1)Nc1cccc(-c2nc3ccccc3s2)c1 [CBK295142] | 134.661 |
| Cc1ccc2cc(C(=O)N3CCCCC3CN3CCOCC3)[nH]c2c1 (stereo not drawn) [CBK304374] | 86.3136 |
| CC1CC1C(=O)N1C2CCC1CC(O)(Cn1ccc3ccncc31)C2 (stereo not drawn) [CBK284653] | 103.797 |
| CC(C)Nc1nc(-c2cccnc2)cn2ccnc12 [CBK093608] | 100.194 |
| C/C=C/c1ccc(OCCNC2CCCC2)c(OC)c1 [CBK266399G] | 133.102 |
| O=C(Nc1snnc1-c1ccc(Cl)cc1)c1cccc(C(F)(F)F)c1 [CBK153246] | 20.5201 |
| COc1ccc(Cl)cc1C(=O)Nc1cc(C)c2c(=O)oc3ccccc3c2n1 [CBK291196] | 89.1478 |
| CCN(CC)CCN(C(=O)NCCCSC)C(C)c1ccc(OC)c(OC)c1 (stereo not drawn) [CBK158803] | 108.8 |
| COCCCOc1nc2cc(Cl)c(Cl)cc2nc1N1CCCC1 [CBK115773] | 91.209 |
| Cn1c(=O)n(Cc2ccccn2)c(=O)c2cnc(-c3ccncc3)nc21 [CBK288592] | 90.1421 |
| Nc1nc(=O)c2cnc3ccc(F)cc3c2s1 [CBK291195] | 88.7682 |
| O=C(Cc1c[nH]cn1)Nc1ccc2cc[nH]c2c1 [CBK160059] | 99.6043 |
| S=C1NCCN1c1nnc(-c2cccs2)[nH]1 [CBK007096] | 90.4982 |
| CCOc1ccccc1C(=O)N1CCC(Cc2ccc(-c3ccccc3)cc2)(C(N)=O)CC1 [CBK285775] | 112.781 |
| CN(C)CCO/N=C(\c1ccccc1)c1ccncc1 [CBK261095G] | 91.3411 |
| Cc1nn(C)cc1-c1cncn1CC(C)N1CCCCC1 (stereo not drawn) [CBK281781] | 96.5726 |
| CCCc1nc(NC(CC)c2nc(C)c(C)s2)c2cnn(C)c2n1 (stereo not drawn) [CBK307261] | 92.5784 |
| CN(c1ncc(-c2ccccc2)cc1C(=O)NCc1ccco1)S(C)(=O)=O [CBK076506] | 121.635 |

| Compound | % of control remaining |
| --- | --- |
| Cc1onc(-c2ccccc2)c1CNC(=O)c1ccc(OC(F)(F)F)cc1 [CBK144080] | 102.553 |
| Cc1ccc(CC2CCCN2CC(=O)NCc2ccccn2)cc1 (stereo not drawn) [CBK304070] | 60.0717 |
| O=C(O)c1ccc(CNCc2ccc(-c3ccc(Cl)cc3)o2)cc1 [CBK269619C] | 107.275 |
| COc1cc(NC(=O)c2ccc3c(c2)C(=O)N(Cc2ccco2)C3=O)c(C(=O)O)cc1OC [CBK267436] | 112.883 |
| CC1=NN(c2ccccc2)C(=O)/C1=C(/C)NNC(=O)c1ccccn1 [CBK261837] | 79.5995 |
| CC(=O)N(C)c1nc(-c2ccccc2C)ccc1C(=O)NC1CCCCC1 [CBK106333] | 96.7872 |
| Cn1c(=O)n(C)c2cc(CNC(=O)COCC3CCCCO3)ccc21 (stereo not drawn) [CBK307061] | 28.7966 |
| O=C(Cc1ccc([N+](=O)[O-])cc1)Nc1cc(C(=O)O)cc(C(=O)O)c1 [CBK263345] | 108.8 |
| Cc1ccc2c(c1)C(=O)NCC1(CCN(C(=O)C3CC3)CC1)O2 [CBK284835] | 92.4678 |
| Cc1cc(C)[n+](-c2ccccc2O)c(C)c1 [CBK005458G] | 81.4978 |
| COc1ccc(C)cc1S(=O)(=O)Nc1cc(Cl)ccc1C(=O)NCc1ccccc1 [CBK113954] | 89.9629 |
| Cc1ccccc1-c1cc(C(=O)N(C)C)c2cnn(C(C)C)c2n1 [CBK306245] | 78.0983 |
| O=C(NCc1ccco1)c1cc(Br)cnc1N1CCOCC1 [CBK076268] | 95.2776 |
| Cc1ccc(-c2n[nH]c(=O)o2)cc1Br [CBK288443] | 99.8202 |
| OCCCc1[nH]nc(-c2ccc(Cl)cc2)c1Br [CBK006993] | 48.5351 |
| COc1ccc(C(CNC(=O)C2C(C(=O)O)C2(C)C)N(C)C)cc1 (stereo not drawn) [CBK286700] | 92.3044 |
| Cc1noc(C)c1S(=O)(=O)Nc1c(C(=O)Nc2ccc(F)cc2)[nH]c2ccccc12 [CBK050099] | 92.7772 |
| COCCN1C(=O)c2ccc(C(=O)c3ccc4c(c3)C(=O)N(CCOC)C4=O)cc2C1=O [CBK268641] | 141.915 |
| CC(Nc1cccc2ccccc12)C(=O)N/N=C/c1c(O)ccc2ccccc12 (stereo not drawn) [CBK262678] | 41.2203 |
| COC(=O)CN1CCCC[C@H]2CN(C(=O)C3CCC3)C[C@H]21 [CBK285496] | 83.7656 |
| Cc1nn(CCC(=O)NCCN2CCC(C)CC2)c(C)c1Cl [CBK281571] | 66.2354 |

| Compound | % of control remaining |
| --- | --- |
| Cc1csc(C(Cc2ccsc2)NC(=O)CCn2cccn2)n1 (stereo not drawn) [CBK285149] | 86.0876 |
| COc1ccc(C)cc1S(=O)(=O)N1CCN(C(c2ccccc2)c2ccccc2)CC1 [CBK263977] | 80.3074 |
| CC(=O)N(C)c1ccc(NC(=O)c2ccccc2C(=O)O)cc1 [CBK270693] | 111.291 |
| Cc1cc2ccccc2n1CC(=O)N1CCn2cnnc2C1 [CBK282209] | 103.544 |
| O=C(O)/C=C/C(=O)Nc1ccccc1C(=O)O [CBK261461] | 93.7651 |
| O=[N+]([O-])c1ccc(N(CCO)CCO)c2nonc12 [CBK261447] | 91.7322 |
| CC(NC(=O)N1CCN(CCc2ccccc2)CC1)c1ccccc1 (stereo not drawn) [CBK158935] | 83.2558 |
| CCCC/C=C/c1cncc(N[C@H](CO)C(C)C)n1 [CBK065314] | 111.201 |
| C[C@@H]1CN(C(=O)c2ccc3[nH]nnc3c2)C[C@H](C)O1 [CBK200369] | 69.9981 |
| COc1ccc(C(=O)N2CCN(Cc3cccnc3)CC2)cc1OC [CBK263321] | 92.8629 |
| COc1ccc(N2CCN(c3nccnc3-c3ccc(C(C)=O)s3)CC2)cc1OC [CBK036968] | 79.8322 |
| Cc1ccc2oc(CN3CCC(O)(c4cccnc4)CC3)c(C)c2c1 [CBK282816] | 78.1067 |
| NCCCNC(=O)c1ccc(/C=N/O)nc1 [CBK264524] | 131.272 |
| c1cc(OCc2cccs2)cc(N2CCNCC2)c1 [CBK022557F] | 53.9457 |
| CC(C)C1C2CCCCC2=NN1C(=O)/C=C/C(=O)O (stereo not drawn) [CBK286862] | 115.344 |
| O=C(NCCc1ccccc1)c1ccccc1NS(=O)(=O)N1CCCC1 [CBK268407] | 103.928 |
| O=C(COc1ccc2oc3c(c2c1)CCCC3)Nc1ccncc1 [CBK266227] | 103.137 |
| COCC(=O)N1CCc2sccc2C1c1ccc(NC(=O)c2cccc(F)c2)cc1 (stereo not drawn) [CBK286468] | 99.9899 |
| CC(=O)NCCCCCC(=O)Nc1ccc(Cl)cn1 [CBK091341] | 99.4662 |
| NS(=O)(=O)c1ccc(NC(=S)NNC(=O)c2cc(Br)ccc2Cl)cc1 [CBK266970] | 87.5982 |
| CN(C)C[C@H]1CC[C@]2(CC1)CN(C(=O)C1CC1)Cc1ccccc1O2 [CBK284920] | 91.4455 |

| Compound | % of control remaining |
| --- | --- |
| O=C(c1ccc2c(c1)OCCO2)N1CCN(C(=O)c2ccco2)CC1 [CBK144480] | 101.314 |
| Cc1ccc(OCCCC(=O)Nc2ccc(C(N)=O)cc2)c(C)c1 [CBK268032] | 93.0656 |
| O=C(N[C@H]1CCN2C(=O)[C@@H](Cc3ccccc3)NC(=O)[C@H]12)c1cnccn1 [CBK289231] | 98.7426 |
| COc1ccc2c(c1)c(C(=O)N1CCn3nc(CO)cc3C1)c(C)n2C [CBK306764] | 63.1512 |
| COc1cc(OC)nc(C(NC(=O)C2CCN(C(=O)c3ccccc3)CC2)c2ccccc2)n1 (stereo not drawn) [CBK059650] | 88.9131 |
| O=C(COc1ccccc1)Nc1ccc2oc(-c3cccnc3)nc2c1 [CBK262959] | 109.633 |
| CCCCOc1nccnc1-c1cnn(C)c1 [CBK107085] | 108.74 |
| CC(NCc1ccc(S(N)(=O)=O)cc1)=C1C(=O)c2ccccc2C1=O [CBK262692] | 92.9845 |
| CCCCCOc1ccc(-c2ccc(Cl)nn2)cc1 [CBK007044] | 5.271 |
| CC(C)(C)c1ccc(OCC(=O)Nc2ccc(S(=O)(=O)N3CCc4ccccc43)cc2)cc1 [CBK265352] | 83.7495 |
| NC(=O)C1CCN(C(=O)CN(c2ccccc2)S(=O)(=O)c2ccccc2[N+](=O)[O-])CC1 [CBK265320] | 107.239 |
| FC(F)(F)c1[nH]c2ncccc2c1CN1CCSCC1 [CBK283257] | 108.193 |
| CCn1cc(CN2C3CCC2CC(O)(c2cccc(F)c2)C3)c(C)n1 (stereo not drawn) [CBK282755] | 109.699 |
| COc1cc(C#N)ccc1OCc1ccccc1 [CBK002577] | 43.4845 |
| O=C(NCCN1CCCCC1)C1CC(=O)N(Cc2ccncc2)C1 (stereo not drawn) [CBK306629] | 84.3217 |
| CCOc1cccc(OCC(=O)N2CCC(c3cc(C(=O)NC)c4ccccc4n3)C2)c1 (stereo not drawn) [CBK285896] | 128.875 |
| Oc1ccc(/N=N/c2cccc(Br)c2)cc1/C=N/c1ccc(-c2nc3ncccc3o2)cc1 [CBK262009] | 90.9654 |
| COc1cccc(Nc2cc(-c3ccc(N4CCOCC4)cc3)ncn2)c1 [CBK090733] | 50.3201 |

— article PMC12040169 (PLOS Biology, 2025)
